# In all, about 110,000 compounds went through this assay and about 230 (0.21%) showed an effect of 50% or more. The list shows a part of the results.
# Biological target: DPAP1 (Plasmodium falciparum, UniProt Q8IIJ9)
# Test: primary screen, percent inhibition; read by cleavage of a fluorogenic dipeptide substrate; higher = more effect of the substance
# Design: species or system P. falciparum D10 trophozoite lysates; single well
# 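Further: 30 min substrate incubation versus DMSO and 10 µM JCP410 controls.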
# DPAP1, sequence (Q8IIJ9 whole entry, looked up): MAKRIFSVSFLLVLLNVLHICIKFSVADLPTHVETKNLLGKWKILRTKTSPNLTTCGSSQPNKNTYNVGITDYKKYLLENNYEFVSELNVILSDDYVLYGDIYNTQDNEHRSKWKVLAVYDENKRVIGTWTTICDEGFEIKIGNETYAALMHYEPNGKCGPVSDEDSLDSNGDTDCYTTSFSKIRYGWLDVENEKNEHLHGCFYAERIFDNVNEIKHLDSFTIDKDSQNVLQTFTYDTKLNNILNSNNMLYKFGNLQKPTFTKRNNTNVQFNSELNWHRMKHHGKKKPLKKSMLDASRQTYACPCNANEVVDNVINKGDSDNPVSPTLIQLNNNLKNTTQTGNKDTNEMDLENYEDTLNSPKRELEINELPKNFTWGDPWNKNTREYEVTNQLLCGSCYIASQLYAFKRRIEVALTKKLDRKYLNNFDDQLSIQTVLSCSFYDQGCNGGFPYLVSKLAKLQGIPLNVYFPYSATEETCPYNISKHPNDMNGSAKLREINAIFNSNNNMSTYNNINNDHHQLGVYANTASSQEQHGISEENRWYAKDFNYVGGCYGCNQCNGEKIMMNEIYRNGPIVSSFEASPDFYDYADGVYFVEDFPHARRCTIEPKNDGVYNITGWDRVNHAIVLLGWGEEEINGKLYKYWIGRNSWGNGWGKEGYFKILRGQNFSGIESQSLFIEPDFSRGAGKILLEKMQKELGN
row,Compound,% Inhibition @ 10 uM [%]
1,Cc1ccc(NC(=O)c2cc(S(=O)(=O)N3CCOCC3)c(Br)s2)cc1,-5.7
2,C=CCn1nnc2sc3c(c2c1=O)CCCC3,3.87
3,CC(C)CC(C(=O)N1CCCCC1)N1C(=O)c2cc(Cl)c(Cl)cc2C1=O (stereo not drawn),-4.74
4,CN1CCN(C(=O)NC23CC4(C)CC(C)(CC(C)(C4)C2)C3)CC1,-5.6
5,COc1cc(OC)c(C2C(C#N)=C(N)Oc3[nH]nc(-c4cccnc4)c32)cc1OC (stereo not drawn),-6.35
6,CCOc1ccccc1C1NC(=O)NC(C)=C1C(=O)OCc1ccccc1 (stereo not drawn),22.5
7,CCOc1ccccc1C1N(c2ccccn2)C(=O)C2CCCN21 (stereo not drawn),-2.29
8,COc1ccc(CCNC(=O)c2cc3c(=O)oc4ccc(C)cc4c3s2)c(OC)c1,3.06
9,COc1ccccc1N(CC(=O)Nc1ccccc1C(C)C)S(C)(=O)=O,-18.8
10,c1ccc(CN2CCN(C3CCCSc4ccccc43)CC2)cc1 (stereo not drawn),-6.37
11,Cn1c2c(c(=O)n(C)c1=O)C(NS(=O)(=O)c1ccc(Cl)cc1)(C(F)(F)F)C(=O)N2 (stereo not drawn),0.561
12,NC(=O)c1c(NC(=O)c2ccc(Br)o2)sc2c1CCCC2,-2.45
13,O=C(C1=C(O)C(=O)N(CN2CCOCC2)C1c1ccc(Br)cc1)c1ccccc1 (stereo not drawn),-9.31
14,C=CCn1c(SCc2ccc(Cl)cc2)nc(O)cc1=O,-1.64
15,COC(=O)/C(C#N)=C/c1c(Oc2ccc(Br)cc2)nc2c(C)cccn2c1=O,0.315
16,COc1cccc(-c2cc(C(=O)Nc3ncccn3)c3ccccc3n2)c1,-7.62
17,CC(=O)Nc1ccc(C23CC4CC(CC(C4)C2)C3)c(C)c1,-2.59
18,CCCCN(CC)C(=O)Cc1nc(-c2ccc(OC)cc2)no1,-3.74
19,O=S(=O)(/N=C(\Oc1ccccc1)c1ccccc1)c1ccc(Br)cc1,-2.41
20,CCOc1c(Br)cc(/C=C2/SC(=O)N(CC(=O)N3CCCC3)C2=O)cc1OC,-5.54
21,CCc1cc2c(cc3c(=O)n(CC(=O)NCCCN(CC)CC)nc(CC)n32)s1,6.35
22,CCOc1ccc(NC(=O)CN(c2ccc(Cl)c(C(F)(F)F)c2)S(C)(=O)=O)cc1,4.08
23,CC1CCCCN1Cc1nc2ccccc2c(=O)n1-c1ccc(F)cc1 (stereo not drawn),0.245
24,CC(C)(C)/C(=C\n1ccnc1)c1ccc(C(F)(F)F)cc1,3.62
25,Cc1nnc2c(SCc3ccco3)nc3ccccc3n12,0.91
26,CCOC(=O)C1=C(N)OC2=C(C(=O)CC(C)(C)C2)C1c1ccc(CC)s1 (stereo not drawn),-4.98

row,Compound,% Inhibition @ 10 uM [%]
1,COc1cccc(OC)c1C(=O)Nc1ccccc1-c1ccccc1,0.273
2,Clc1ccc(OCCN2CCN(c3ncnc4c3cnn4-c3ccccc3)CC2)cc1,0.426
3,COc1ccc(C(=O)N2CCCCC2)cc1S(=O)(=O)NC(C)C,-7.37
4,CC1(C)CC(=O)C(/C=N/CCN2CCOCC2)=C(O)C1,4.55
5,O=C(NCC1(c2ccccc2)CCOCC1)c1ccccc1F,2.17
6,COc1ccc(CC(=O)NCCc2csc3ccc(Cl)cc23)cc1OC,0.843
7,Cc1ccccc1NC(=O)C(C)SCc1ccccc1 (stereo not drawn),-4.48
8,Clc1ccc(N2CCN(Cc3cccs3)CC2)cc1,-1.92
9,Cc1ccc(Nc2nc(-c3ccccc3O)nc3ccccc23)cc1,3.53
10,Cc1ccc(C2C=C(c3ccc(Br)cc3)Nc3ncnn32)cc1 (stereo not drawn),-5.11
11,CCCNc1cc(C)oc(=O)c1C(=O)CCC,-5.68
12,CC(C)(C)C(=O)Nc1nsc(-c2ccccc2)n1,-4.62
13,O=S(=O)(O)CCC[n+]1ccc(/C=C/c2c[nH]c3ccccc23)cc1,-1.18
14,CCCOc1cc(-n2nc(SC)c(C#N)c2N)nc(SC)n1,-4.65
15,CCOc1ccc(-n2nnc(-c3nc(-c4ccc5c(c4)OCO5)no3)c2N)cc1,-2.76
16,COc1cc(/C=C(/C#N)C(N)=S)ccc1OCc1ccccc1,-2.89
17,CCOc1cc(CN2CCSCC2)ccc1O,96.4
18,CCCCCC12CCC(O)(CC1)CC2=O,0.912
19,CN(C)CCN(C)Cc1cc(Br)cs1,0.215
20,COc1cccc(C(=O)Nc2ccc(C(C)C)cc2)c1,-1.25
21,Cc1cc(NC(=O)CCn2cnnn2)no1,1.76
22,COc1ccc(-c2nnc3n2N=C(c2cc4cccc(OC)c4oc2=O)CS3)cc1,6.65
23,CCOC(=O)C1CCCN(Cc2cccc(C)c2)C1 (stereo not drawn),-3.71
24,COc1ccc(-n2ncc(C(=O)N3CCCC3)c2C2CCN(C(=O)OC(C)(C)C)CC2)cc1,-10.2
25,CCOC(=O)C1=C(C)N(C)C(C)=C(C(=O)OCC)C1c1ccccc1,1.03
26,CCn1c(-c2nc3ccccc3n2CC)nc2ccccc21,-4.39

row,Compound,% Inhibition @ 10 uM [%]
1,c1ccc(CC2CCN(c3nnc(Cc4cccnc4)c4ccccc34)CC2)cc1,-10.4
2,Cc1ccc(-c2cc(C(=O)NCc3cccnc3)c3ccccc3n2)cc1C,-4.06
3,N#CC1=C(c2ccccc2)C(c2ccccc2)OC1=O (stereo not drawn),-1.86
4,Cc1ccc(C)c(NC2=C(Cl)C(=O)N(c3ccccc3)C2=O)c1,4.28
5,Cn1c(=O)c2nnc(O)nc2n(C)c1=O,0.558
6,O=C(CSc1[nH]c(-c2ccccc2)nc1-c1ccccc1)Nc1nccs1,3.48
7,Cc1ccc2[nH]c3c(c2c1)CCCC3(C)C(N)=O (stereo not drawn),1.57
8,CC1CCC(NC(=O)Cn2c3ccccc3c3cnnc(O)c32)CC1 (stereo not drawn),-2
9,O=C(NCc1cccnc1)c1ccc(CN2CCC(Cc3ccccc3)CC2)cc1,-9.6
10,N#CC1=C(N)Oc2cc(O)ccc2C1c1cccc(O)c1 (stereo not drawn),-3.48
11,C1CCCN(C2CN3CCC2CC3)CCC1 (stereo not drawn),0.162
12,COc1ccccc1C1CC(=O)NC2=C1C(=O)CC(c1cccs1)C2 (stereo not drawn),-2.95
13,CCOc1cccc2sc(N(CCN(C)C)C(C)=O)nc12,-1.14
14,Cc1c2cnn(CC(=O)NCCCc3ccccc3)c(=O)c2c(C)n1Cc1ccccc1F,4.4
15,COC(=O)C1=CN(Cc2cccs2)C=C(C(=O)OC)C1c1ccc(OC)c(OC)c1OC,-6.91
16,Cc1cccc(C(=O)NCc2ccc(-n3cccc3)cc2)c1,4.31
17,COc1cc2c3c(c1OC)-c1ccccc1CC3N(C)CC2 (stereo not drawn),-3.63
18,CC(C)(O)C#Cc1ccc(C(=O)N2CCN(c3ccc(F)cc3)CC2)cc1,-1.32
19,CN(C(=O)Nc1cn(C)c(=O)c2ccccc12)C1CCCCC1,6.08
20,Cc1ccc(OCc2occc2C(=O)O)cc1,3.06
21,Clc1ccccc1-c1ccc(-c2nn3c(-c4ccco4)nnc3s2)o1,-3.64
22,COc1ccc(Br)cc1/C=C1\N=C(c2cc(Br)ccc2OC)OC1=O,8.06
23,CC1(C)OC2C(CO)OC(n3c(Br)nc4c(O)nc(N)nc43)C2O1 (stereo not drawn),-0.902
24,CCOC(=O)C1=C(C)OC(N)=C(C#N)C1c1ccc(Br)cc1 (stereo not drawn),3.54
25,CCCN1CCN(C(=O)C2=C(C)C(=O)OC23CCN(S(=O)(=O)CC)CC3)CC1,-6.67
26,Cc1ccc(N2C(=O)C3C(C2=O)C2C=CC3C23CC3)cc1Cl (stereo not drawn),-5.98

row,Compound,% Inhibition @ 10 uM [%]
1,Cc1sc2nc3c4ccccc4c(N4CCN(CCO)CC4)nn3c(=O)c2c1C,6.58
2,CN(C)C(CNC(=S)NCCc1ccccc1)c1cccnc1 (stereo not drawn),-0.499
3,CC(=O)N(CC12CC3CC(CC(C3)C1)C2)C1CC(=O)N(c2cccc(Cl)c2)C1=O (stereo not drawn),0.475
4,COc1ccc(NC(=O)c2cc(-c3ccco3)nc3ccccc23)cc1,5.82
5,Nc1cc(O)nc(SCC(=O)N2c3ccccc3Sc3ccccc32)n1,-6.7
6,COc1cccc(-c2nn(C)c3sc(C(=O)NCc4cccnc4)cc23)c1,1.23
7,Cc1ccc(N(CC(=O)N2CCC(C)CC2)S(=O)(=O)c2ccccc2)cc1,-7.08
8,N#C/C(=C\c1c(Oc2ccc(Br)cc2)nc2ccccn2c1=O)C(=O)N1CCOCC1,-0.828
9,CCc1ccc(/C=C2\SC(N)=NC2=O)cc1,2.56
10,CC1CCN(C2=NN3C(=N)/C(=C\c4ccc(O)cc4)C(=O)N=C3S2)CC1,0.0579
11,OC1CCCN(Cc2ccc(Br)cc2)C1 (stereo not drawn),-0.828
12,O=C(c1cc(-c2ccccc2)c(N2CCCCC2)s1)N1CCC(N2CCCCC2)CC1,-6.64
13,Fc1cccc(-c2nc3ncccc3o2)c1,-0.92
14,COCc1nn2cc(-c3ccc(F)cc3)nc2s1,-6.43
15,CCOC(=O)c1sc2nccc(NCc3ccccc3)c2c1N,-1.07
16,Cc1[nH]c2ccc(C(=O)NCCCN(C)C3CCCCC3)cc2c1C,2.79
17,CC(C)(C)NC(=O)NS(=O)(=O)c1ccccc1Cl,-2.77
18,O=C(c1ccco1)N1CCN(S(=O)(=O)c2ccc(-n3cnnn3)cc2)CC1,2.29
19,Cc1ccc(NC(=O)c2ccccc2F)cc1Cl,1.29
20,Cc1cc(O)nc(SCCOc2ccccc2)n1,2.67
21,O=C1C2C3c4ccccc4C(c4ccccc43)C2C(=O)N1CNc1ccccc1 (stereo not drawn),2.03
22,Clc1ccc(C2NCc3ccccc3-n3cccc32)cc1 (stereo not drawn),4.61
23,COc1ccc(C2CC(=O)N=C(NC(=O)c3ccc(C(C)(C)C)cc3)N2)cc1 (stereo not drawn),2.65
24,CCOCCCNC(=O)c1ccc(-c2nc(CS(=O)(=O)c3ccc(C)cc3)c(C)o2)cc1,-2.37
